{"source": "PubChem BioAssay AID686978", "about": "(National Center for Advancing Translational Sciences (NCATS), 2013)", "note": "Several values for one entry are separate records, joined by “and”; a condition that tells them apart may be missing. Equal values may be shown once. Among all 420,000 compounds or so, about 64,000 (15%) were called active. Inconclusive means that the source gave no clear call. Such entries were picked first, then a sample of the others. Calls come from the whole dose curve; as a rule, active = well fitted inhibition curve with a large enough effect; inconclusive = small, poorly fitted or top-dose-only effect; inactive = flat fitted curve, though single readings scatter. Where the call is inconclusive, the potency comes from a doubtful curve fit. % is set by controls: 0 for no effect and ±100 for the full control effect; potency is the fitted concentration of half-maximal effect; tags give direction and shape of the fitted curve."}
{"assay": "qHTS for Inhibitors of human tyrosyl-DNA phosphodiesterase 1 (TDP1): qHTS in cells in absence of CPT; note: nearly all actives have a fitted effect of over 55% in size", "conditions": "DT40 Tdp1-/- hTDP1 cells, no CPT, ATP luminescence, 48 h; activity change, negative = growth inhibition: at 46.2 µM (top of the series) unless noted", "outline": "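Stably hTDP1-transfected Tdp1-null chicken DT40 cells were treated with library compounds minus camptothecin and grown for at least 48 hr at 37 °C, after which cellular ATP was quantified by luminescence.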"}
{"smiles": "COc1ccccc1-c1csc(C(O)c2ccccc2)n1", "note": "(configuration not stated)", "Potency": "inconclusive: 14.6 µM [inhibitor, partial curve]"}
{"smiles": "COC(=O)/C=c1/s/c(=C(/C#N)C(=O)N2CCCCC2)n(-c2ccccc2)c1=O", "activity change, negative = growth inhibition": "inconclusive: -30.6% [inhibitor]"}
{"smiles": "O=C(Oc1ccccc1)N1CCC2(CC1)CCN(c1ncccn1)CC2", "Potency": "inconclusive: 29.1 µM [inhibitor, single point]"}
{"smiles": "Cc1ccc(S(=O)(=O)N2CCCCC2)cc1NC(=O)COC(=O)c1ccccc1F", "Potency": "inactive"}
{"smiles": "CC(=O)c1ccc2c(c1)OCCOCCOc1ccc(C(C)=O)cc1OCCOCCO2", "Potency": "inconclusive: 25.9 µM [inhibitor, single point]"}
{"smiles": "CCn1c(SCC(=O)Nc2ccc3c(c2)OCCO3)nnc1-c1c[nH]c2ccccc12", "Potency": "inconclusive: 29.1 µM [inhibitor, single point]"}
{"smiles": "Cc1ccc(C(C)C)c2oc(=O)cc(-c3ccc(-c4ccc(C(F)(F)F)cc4)cc3)c12", "Potency": "active: 20.6 µM"}
{"smiles": "CCOC(=O)c1c(C)n(-c2ccccc2)c2ccc(OC(=O)c3cc(OC)cc(OC)c3)cc12", "Potency": "active: 20.6 µM"}
{"smiles": "CCCCCCCCN1C(=O)[C@H](CC(=O)NCCCC)C[C@@]2(C(=O)OC)CCCCC=C12", "Potency": "active: 11.6 µM"}
{"smiles": "Cc1cccc(C(=O)NNC(=O)c2ccc(-c3ccccc3)cc2)c1", "Potency": "inconclusive: 23.1 µM [inhibitor, single point]"}
{"smiles": "CC(C)(C)Nc1c(-c2cccs2)nc2ccccn12", "Potency": "inconclusive: 14.6 µM [inhibitor, partial curve]"}
{"smiles": "CCc1cc2c3c(c(=O)oc2cc1OC)CCCC3", "activity change, negative = growth inhibition": "inconclusive: -30.3% [inhibitor]"}
{"smiles": "Cc1c(C(=O)NCC2CC2)sc2ncnc(NCCN3CCCCC3)c12", "Potency": "inactive"}
{"smiles": "CCc1ccc(NC(=O)c2cc(C)nn2-c2ccccc2)cc1", "Potency": "inconclusive: 20.6 µM [inhibitor, partial curve] and inconclusive: 23.1 µM [inhibitor, single point]"}
{"smiles": "NC(=O)c1cccc(-c2ccnc3c2CC(C(=O)Nc2cccc(Oc4ccccc4)c2)O3)c1", "note": "(configuration not stated)", "Potency": "inconclusive: 20.6 µM [inhibitor, single point]"}
{"smiles": "Cc1cc(C)n2nc(SCC(=O)Nc3c(C)nn(-c4ccccc4)c3C)nc2n1", "Potency": "inconclusive: 29.1 µM [inhibitor, single point]"}
{"smiles": "Cc1ccccc1OCCNC(=O)c1ccccc1Sc1ccccc1C#N", "Potency": "active: 16.4 µM"}
{"smiles": "COc1ccc(CCNC(=O)CN(C)S(=O)(=O)c2ccc3nc(C)sc3c2)cc1OC", "Potency": "inactive"}
{"smiles": "CCOC(=O)c1c(C)[nH]c(C)c1S(=O)(=O)NCC1CCN(Cc2ccccc2OC)CC1", "Potency": "inactive"}
{"smiles": "CCOCCn1c(SCc2ccccc2)nc2c1c(=O)[nH]c(=O)n2C", "Potency": "inactive"}
{"smiles": "COc1ccccc1NC(=O)Cn1nc(Cc2cccnc2)c2ccccc2c1=O", "Potency": "inactive"}
{"smiles": "Cc1cc(=O)n(CC(=O)NC(C)c2ccccc2)c2c1c(C)nn2C", "note": "(configuration not stated)", "Potency": "active: 8.2 µM"}
{"smiles": "COC(=O)C(NC(=O)c1ccc(C)cc1)(Nc1cccc(C)n1)C(F)(F)F", "note": "(configuration not stated)", "Potency": "inconclusive: 16.4 µM [inhibitor, single point]"}
{"smiles": "Cc1cccc(NC(=O)Nc2c(C)n(C)n(-c3ccccc3)c2=O)c1", "Potency": "inconclusive: 18.4 µM [inhibitor, single point]"}
{"smiles": "CC1(C(=O)NS(=O)(=O)c2cccc(Cl)c2)CCN1C(=O)c1ccccc1CCc1ccccc1", "note": "(configuration not stated)", "Potency": "inconclusive: 16.4 µM [inhibitor, single point]"}
{"smiles": "O=[N+]([O-])c1cc(-c2n[nH]c(-c3ccccc3)n2)cc([N+](=O)[O-])c1", "Potency": "inconclusive: 35.5 µM [inhibitor, single point]"}
{"smiles": "CCC(=O)Nc1cc(-c2nc3ccccc3s2)c(Cl)cc1Cl", "Potency": "inactive"}
{"smiles": "COc1ccc(-c2nn(CC(=O)Nc3ccc(Cl)c(Cl)c3)c(=O)c3ccccc23)cc1", "Potency": "inactive"}
{"smiles": "COc1cc2c(cc1NC(=O)C(C)Sc1ccc(C)cc1)oc1ccccc12", "note": "(configuration not stated)", "Potency": "inconclusive: 22.4 µM [inhibitor, single point]"}
{"smiles": "CCc1cccc(C)c1NC(=O)C(CC)Sc1nncn2c1cc1occc12", "note": "(configuration not stated)", "Potency": "active: 20.6 µM"}
{"smiles": "Cc1ccc(Nc2nc(C)c(NC(=O)c3ccc(C)cc3)c(Nc3ccc(C)cc3)n2)cc1", "Potency": "active: 4.61 µM"}
{"smiles": "COc1ccccc1CNC(=O)CSc1ccc(-c2ccncc2)nn1", "Potency": "inactive"}
{"smiles": "Cc1ccc(S(=O)(=O)Nc2cccc(C(=O)NCC(c3ccco3)N3CCCC3)c2)cc1F", "note": "(configuration not stated)", "Potency": "inconclusive: 16.4 µM [inhibitor, partial curve, poor fit]"}
{"smiles": "CCOC(=O)N1CCC(NC(=S)Nc2ccc3nc(N4CCN(C)CC4)cc(C)c3c2)CC1", "Potency": "inconclusive: 10.3 µM [inhibitor, partial curve, poor fit]"}
{"smiles": "Cn1c2ccccc2c(=O)c2c(=O)n(Cc3ccco3)c(-c3ccc(F)cc3)nc21", "Potency": "inconclusive: 14.6 µM [inhibitor, single point]"}
{"smiles": "COc1ccc(/C=C\\C(=O)Nc2ccccc2C(=O)O)cc1OC", "Potency": "active: 13.3 µM"}
{"smiles": "COc1ccc(OC)c(C(C(=O)NCc2ccco2)N(C(=O)Cn2nnc3ccccc32)C2CC2)c1", "note": "(configuration not stated)", "Potency": "active: 16.4 µM"}
{"smiles": "COc1ccc(CCC(=O)Nc2cccc(S(=O)(=O)N3CCCCCC3)c2)cc1", "Potency": "inconclusive: 25.9 µM [inhibitor, single point]"}
{"smiles": "CCOc1ccc(NC(=O)CCNS(=O)(=O)c2cccc3nsnc23)cc1", "Potency": "inconclusive: 23.1 µM [inhibitor, single point]"}
{"smiles": "Cc1ccc(NC(=O)Cn2cc(C(=O)C3CCCCC3)c3ccccc32)c(C)c1", "Potency": "inconclusive: 23.1 µM [inhibitor, single point]"}
{"smiles": "Cc1cccc(C(=O)Nc2nnc(S(=O)(=O)N3CCCc4ccccc43)s2)c1", "Potency": "active: 16.4 µM"}
{"smiles": "C[C@H](NC(=O)c1[nH]cnc1C(=O)Nc1ccc(Cl)cc1)C(=O)OC(C)(C)C", "Potency": "inconclusive: 16.4 µM [inhibitor, single point]"}
{"smiles": "Cn1c(=O)n(C)c2cc(NS(=O)(=O)c3ccc(C(C)(C)C)cc3)c(NCc3ccccc3)cc21", "Potency": "active: 23.1 µM"}
{"smiles": "Cc1ccc(C(=O)NCCN2CCN(C(=O)c3ccc(C)c(C)c3)CC2)cc1C", "Potency": "inconclusive: 29.1 µM [inhibitor, single point]"}
{"smiles": "CCOc1ccc(N2C(=O)C3C(C2=O)C3(c2ccccc2)c2ccccc2)cc1", "note": "(configuration not stated)", "Potency": "inconclusive: 29.1 µM [inhibitor, single point]"}
{"smiles": "CCN(C(=O)CN1CCN(Cc2ccccc2)CC1)c1c(N)n(Cc2ccccc2)c(=O)[nH]c1=O", "Potency": "inconclusive: 29.1 µM [inhibitor, single point]"}
{"smiles": "COc1ccc(C(=O)NCCNc2ncc(C(F)(F)F)cc2Cl)cc1[N+](=O)[O-]", "Potency": "inconclusive: 20.6 µM [inhibitor, single point]"}
{"smiles": "COc1ccc(-c2csc(NC(=O)C3=COCCO3)n2)cc1OC", "Potency": "inconclusive: 29.1 µM [inhibitor, single point]"}
{"smiles": "COc1ccccc1C(=O)N1C(CC(=O)Nc2cc(Cl)ccc2C)C(=O)NC2CCCCC21", "note": "(configuration not stated)", "Potency": "inconclusive: 20.6 µM [inhibitor, single point]"}
{"smiles": "O=C(CSc1ncn[nH]1)Nc1c(F)cc(F)cc1Br", "Potency": "inactive"}
{"smiles": "Cc1sc2ncnc(N3CCC(C(=O)Nc4ccc(Cl)cc4Cl)CC3)c2c1C", "Potency": "active: 18.4 µM"}
{"smiles": "CCCCC(=O)NC(=S)Nc1cc([N+](=O)[O-])ccc1OC", "Potency": "inactive"}
{"smiles": "O=C(NCc1ccc(F)cc1)C(=O)NCC(c1ccco1)S(=O)(=O)c1cccs1", "note": "(configuration not stated)", "Potency": "inconclusive: 23.1 µM [inhibitor, single point]"}
{"smiles": "CCN(CC(=O)Nc1cc(Cl)ccc1C)C(=O)CCOc1ccccc1C", "Potency": "inconclusive: 20.6 µM [inhibitor, partial curve]"}
{"smiles": "COc1ccc(C(CNC(=O)c2ccc(-c3nc4ccccc4s3)o2)N2CCCC2)cc1", "note": "(configuration not stated)", "Potency": "active: 20.6 µM"}
{"smiles": "COC(=O)c1ccccc1NC(=O)CSc1nnc2cc(C)c3cc(C)cc(C)c3n12", "Potency": "inconclusive: 29.1 µM [inhibitor, single point]"}
{"smiles": "CCC(C(=O)Nc1cccc(C#N)c1)n1nc(-c2ccccc2)ccc1=O", "note": "(configuration not stated)", "Potency": "inconclusive: 18.4 µM [inhibitor, single point]"}
{"smiles": "COC(=O)c1ccc(/C=C/c2c(-c3ccc(OC)cc3)oc3ccccc23)cc1", "Potency": "active: 18.4 µM"}
{"smiles": "O=C(c1ccc2c(c1)N(Cc1ccc(Cl)cc1)C(=O)c1ccccc1S2(=O)=O)N1CCc2ccccc21", "Potency": "active: 7.31 µM"}
{"smiles": "Cc1cc(C(C)(C)C)cc(S(=O)(=O)NCCc2ccncc2)c1C", "Potency": "inconclusive: 18.4 µM [inhibitor, single point]"}
{"smiles": "CCc1cccc2c(C(=O)C(NCCOC)c3ccccc3)c[nH]c12", "note": "(configuration not stated)", "Potency": "active: 11.6 µM"}
{"smiles": "Cc1cccc(NC(=S)NC(=O)CCc2ccccc2)c1C", "Potency": "inconclusive: 25.9 µM [inhibitor, partial curve]"}
{"smiles": "CC(=O)c1ccccc1OCCOc1ccccc1C(C)=O", "Potency": "inconclusive: 29.1 µM [inhibitor, single point]"}
{"smiles": "COc1ccc(N2CCN(C(=O)c3ccc4c(=O)n5c(nc4c3)CCCCC5)CC2)cc1", "Potency": "inconclusive: 6.51 µM [inhibitor, partial curve]"}
{"smiles": "O=C(NC1CCCC1)c1cc(-c2ccccc2O)on1", "Potency": "inconclusive: 13 µM [inhibitor, single point]"}
{"smiles": "CC(NC(=O)CN1c2cccc3cccc(c23)S1(=O)=O)c1ccccc1", "note": "(configuration not stated)", "Potency": "inconclusive: 23.1 µM [inhibitor, single point]"}
{"smiles": "Nc1c(Cl)cc(-c2csc(NC(CO)c3nc4ccccc4n3CCOCCO)n2)cc1Cl", "note": "(configuration not stated)", "Potency": "inconclusive: 29.1 µM [inhibitor, single point]"}
